According to PMC6212790:
This is one part of the list. At the low end of the ranking, values are background and their order means little.

Target: T1, GST-Rok (full length) (UniProt O34857)
T1 sequence: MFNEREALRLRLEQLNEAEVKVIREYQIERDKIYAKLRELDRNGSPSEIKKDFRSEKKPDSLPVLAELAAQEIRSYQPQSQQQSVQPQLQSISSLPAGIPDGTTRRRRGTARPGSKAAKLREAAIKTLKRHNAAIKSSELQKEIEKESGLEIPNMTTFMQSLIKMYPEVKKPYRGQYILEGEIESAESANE
Assay: protein binding microarray;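 further: rank score from −0.5 (least bound) to 0.5 (best bound)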
Details: Rok is a gene silencer of Bacillus subtilis; high values mean tight binding; most listed sequences are background and not binding sites; double strand, one strand shown

Sequence | binding signal [E-score]
AATCACGC | 0.0329
CGGCCCAG | -0.282
AGCGGACC | -0.174
AAGGTAGG | 0.133
AAATGCTC | -0.142
CATGTAGC | 0.384
CTCGAGGC | -0.235
CTCACTGC | 0.0486
ATCCGTGA | -0.0763
GGCCATCA | -0.282
CGGGAAAG | -0.23
CCCGTTCA | -0.154
GATAATCC | 0.101
GCCTAAAC | -0.17
AAGAGCCT | -0.224
CGCTACCG | 0.0836
AGAAGTGA | 0.0234
AGAGGGAT | -0.228
AGTGCGGA | 0.012
ACTGTTGC | 0.175
GATAGACC | 0.144
CCAACATC | 0.022
CCAGGCCC | -0.477
AGAACTGC | -0.189
TATTGAAA | 0.0126

Sequence | binding signal [E-score]
ATCTAGAA | 0.264
ACAATTAC | 0.292
CGATTCGA | 0.0554
CGATATTC | 0.194
AATTTGGT | 0.177
ACCACATA | 0.22
GGTTTACA | 0.13
CAGGGGTC | -0.378
TATGGGAA | 0.00644
ACAAGGCC | -0.285
ATCGCAAG | 0.0159
CTGTCAAC | -0.0772
CGGCCTCC | -0.47
CGCACCTC | -0.211
CTAATATC | 0.255
TACCCTCA | -0.148
CCTACCCG | -0.129
CCCGTGGC | -0.218
ATCTCAAT | 0.125
ATGAAATC | 0.029
ATTTCCCC | -0.123
AAGGGATT | -0.133
AGTGATGA | 0.0696
TAGGTAAA | 0.222
ACCCCAAT | -0.313

Sequence | binding signal [E-score]
CCAGTCAA | 0.0257
GACGGATA | -0.0532
ACTGACGG | -0.117
AACGCTTA | -0.0523
GCTTATTA | 0.163
ACGACGCC | -0.224
AATTGCCA | 0.106
CTACTGAA | 0.0898
CTTTCACC | -0.069
CTGATTGA | 0.0462
CTTGGACA | -0.0937
TAGATTGA | 0.243
AAGTACGC | 0.0101
AAGGTTGT | -0.00326
TAGCGTCA | 0.0319
ACGTAGCC | -0.0791
ACCAGCAC | -0.049
GCCTCCCA | -0.31
GTCTCAAC | 0.0182
TCGTGCCA | -0.0596
ACTGTACA | 0.183
CAATCTAA | 0.172
GAGGCAGA | -0.244
AGACTGGG | -0.158
AGCACATC | 0.0392

Sequence | binding signal [E-score]
ACCGTAGT | 0.0987
ACTTGTGA | -0.0118
AGGCGGTG | -0.118
ACCGAATA | 0.165
CACCCCGC | -0.315
CGGGAACG | -0.331
ACCGACGG | -0.204
CGGGGAAA | -0.0502
ATGAAAGG | -0.0999
GGGCATGA | -0.239
AACATCCC | -0.196
AGCTGGCA | -0.193
TCGTTCCA | -0.0352
GGAAAGAA | -0.0486
AGGGAGTA | -0.13
ATCCCACG | -0.0391
CAATAGTA | 0.341
CACATGGA | 0.0382
AATAGAGA | 0.239
CTAGTGCA | 0.183
AGTGAATA | 0.0769
CCAGAGCA | -0.238
ATTAGAAC | 0.0761
CAAAAGGA | -0.277
CTCGTTTC | -0.07

Sequence | binding signal [E-score]
ATTGTCGA | 0.0279
CGCCTTAG | -0.197
TGCTGCAA | -0.149
AAAGTACG | 0.22
CCTAAAAC | -0.0415
ACGATTAT | 0.0621
ACGTTAGG | 0.149
CTCGAGAG | -0.153
ACGTTAGT | 0.208
GATACAAC | 0.172
AGCAGTAC | 0.152
CGTGACAG | -0.207
TCGGACAA | -0.163
GGTAGGCA | -0.0246
TAATACCA | 0.295
ACCTGATC | 0.132
CCTCGGCC | -0.355
ATGGCTCC | -0.167
GGCGTCCC | -0.312
CGGCTAAA | -0.169
AAAAGCAC | -0.209
CAGACAGA | 0.055
TCATGCGA | 0.123
CATTAGGG | -0.267
AGATCGGC | -0.0118

Sequence | binding signal [E-score]
AAGGGGAG | -0.306
TACAAAGA | 0.138
GATTAGGC | -0.196
ACCTGACG | -0.206
TTAATCAA | 0.0113
GGCGCTCA | -0.246
CGGAACCC | -0.136
ACTTGCCC | -0.11
ATGTATAC | 0.347
GTTCGCAA | 0.0647
CACGCGAC | -0.196
CCGGGTAG | -0.145
GACCTAGC | 0.0924
GATGCCGA | -0.0107
AACCGGGG | -0.334
ACGGATGC | -0.078
CCCGCGTC | -0.133
CGATCTCC | -0.122
CCGGCCTC | -0.397
GTTGGAAA | 0.0453
CGCCCGAA | -0.207
ATCACCAG | 0.0364
ATTAGCCA | -0.0359
AAGCCCCT | -0.336
ATGTAGTG | 0.211

Sequence | binding signal [E-score]
CTAAGCTA | 0.244
AAACTTGC | -0.0499
AACAAATA | 0.295
ATCTCCGA | 0.00146
CTTGCCGA | -0.0663
ATTGATAG | 0.288
GCCAGGAC | -0.283
CCAGTGAG | -0.239
TCAGGCCA | -0.178
AATCGCGA | 0.193
ATCCAGAT | 0.0992
ACGCCACC | -0.149
GCCACGGC | -0.323
GATAGGCA | 0.0553
GAGGTTCC | -0.231
GACACAGC | -0.196
TTAACCAA | 0.11
CCGAAAAC | 0.0988
GCTCCAGC | -0.123
CTAAGGAC | -0.0964
GAATGTGC | 0.0407
ACAAGCTC | -0.0235
CAAGTAGA | 0.286
AGTAACTC | 0.0592
CGTAGTAC | 0.202

Sequence | binding signal [E-score]
AGATAATA | 0.31
ACCGGTAT | 0.198
ATTCAACC | -0.142
GCCTTTCA | -0.234
CTTGGACC | -0.247
ACCCGCTA | -0.0838
GAATATAA | 0.266
CAAAGATG | 0.046
AACAAGCA | 0.0484
GGCCAGGA | -0.233
GATGCATC | -0.00841
ACTTCCGG | -0.105
CAGGATCC | -0.0767
ACCGCACT | 0.0535
ATATGGAC | 0.025
AGTTGGAT | 0.082
ACAATGCG | 0.1
AGATGTGG | -0.117
TCCTTGAA | -0.144
GGTGGGAC | -0.282
CACAACAC | 0.138
ATTCCAGA | 0.0743
GAAAATGC | -0.0512
GACGGATC | -0.0729
AGGAGTGC | -0.293

Sequence | binding signal [E-score]
AAGGAGGG | -0.308
CCAGAATA | 0.0214
GCTGCGAA | -0.0711
AACCCTTC | -0.295
ACCCCAAC | -0.253
GCTATCGA | 0.0757
TCGTACAA | 0.149
TCTAACCA | 0.162
GCACGGAA | 0.0213
CCGGTTGC | -0.313
CAGAAATC | -0.0506
CTCGAGCA | -0.112
CCGTTTTC | -0.159
CTAGCCCA | -0.113
ACTGTGCA | 0.0717
GCATGACC | -0.225
GGATGAGA | -0.102
AAGCATCA | 0.0275
ACCCCGGT | -0.205
